The list shows a part of the results.
Test system: T1, Caupolican (Caup) homeodomain DNA-binding domain
T1 sequence: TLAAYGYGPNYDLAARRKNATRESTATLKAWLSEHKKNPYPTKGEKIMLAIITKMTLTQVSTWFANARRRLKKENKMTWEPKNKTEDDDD
Experiment: PBM E-score (8-mer, recovered from the published 9-mer minima) (E-score (dimensionless, -0.5 to 0.5)); Drosophila protein; higher = stronger relative binding preference, active = 0.31 or more
Experimental: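 Protein binding microarray (PBM): in vitro transcribed/translated Caupolican (Caup) homeodomain DNA-binding domain (residues 214-303) applied at 100 nM to a universal 8-mer PBM array (Agilent AMADID 015681). The 8-mer enrichment score (E-score, range -0.5 to 0.5) was computed, and each 9-mer score is the minimum E-score of its two constituent 8-mers. The E-score is the same for a 9-mer and its reverse complement; 0.31 is the stated binding threshold.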

PBM E-score, ≥ 0.0201:
CCTACGCA

PBM E-score, ≥ 0.144:
AATAAGAT

PBM E-score, ≥ 0.0539:
ATCAGGAA

PBM E-score, ≥ -0.0467:
TGCCAGCA

PBM E-score, inactive:
TCTATAAA 0.144, CCCATGCA -0.119, ACCGCGAG -0.123, TTAGTAAA 0.174, GACTAGCC -0.0678, ATTGATGA 0.104, CGGAACCA -0.00317, CGGCCCAA -0.235, AGATGCCG -0.131, AAGTAGGC -0.107, AGGGGATG -0.0667, ACGATGGA 0.0491, ACGGTGTG 0.0134, ACAGAAGA 0.101, GTACGCTA 0.0182, CCACAAAG -0.171, CCGAATAA 0.0745, ACATTTTG 0.246, CGCGCAAG -0.107, TCCTCAGA -0.00186, CCTCTGAC -0.115, CTAAGTTA 0.0634, CGAGCCAC -0.165, CAACAACC 0.238, AACATCTG 0.22, CTGCGAAG -0.122, AACAGAGC 0.0463, CCGCTGCA -0.115, ATAGACGC 0.0697, CTGTGACA 0.242, GGCACCCC -0.261, CAAGGAGG -0.0216, ATGCCCCA -0.165, CGACTAGC -0.0279, AGACACGG 0.279, CTGTCTTA 0.0792, AATCTTCT -0.0109, AGAATCCG -0.00411, TAGTAGGA -0.0352, AGGTATAC 0.174, ACCGACAC 0.145, ACCGGGCC -0.228, GCTTTGAC -0.0287, GAATTCGC -0.0756, ATGCTCCA 0.00184, AAAAGAGG -0.085, CGACGCCG -0.174, CAATCTCG 0.0293, GACGTATC -0.0513, AAGGACGA -0.0282, GCAAACGC -0.0897, AGGCCTCG -0.23, AATATTCG 0.121, AGATGACT -0.0736, CCCTACCC -0.125, GACGTGCA -0.0198, AATATTGA 0.0813, AAGCATTA 0.109, CAATGCGC -0.0419, TGGGAAAA -0.0544, TCTCAGAA -0.0046, TCAAGTGA 0.0578, CTACGGGC -0.231, CAGGTAGC -0.0102, CCTCATCC -0.161, ACACCGTA 0.139, ACTTCGCA -0.1, CCGTAGCG -0.221, CTGGGGAA -0.227, AGAACCTC -0.133, TAATTGTA 0.243, GCCTGCAC -0.182, ACGCGGGA -0.141, CGCCACGA -0.0847, ACTTTGTG 0.00955, AACGGATG 0.054, CGTCTACA 0.091, CTCTCATA -0.00226, TGGCCGAA -0.0603, GTTCGGTA 0.127, CCCTAAGC -0.169, CAGGGTGA -0.0887, CGTGCGCA -0.137, CAAGTCTG 0.0802, CCAACATA 0.211, CGATGCTA -0.0386, ACTTCTGG 0.0268, ATCTGAAC 0.116, CAGCATTC -0.0312, AGTCGCTC -0.0941, AGCCTACT -0.116, TAACTTGA 0.154, CGTCTTCC -0.0698, GCCATCAA -0.048, AAGCGTCG -0.0819, GTTGCCGA -0.0733, GACCGAGA -0.103, CCCTCCAG -0.268, AACCTCGC -0.0388, ATCGTCCC 0.0273, ACCACAAA 0.0575, CCTTAGAC -0.0508, AATATAAT 0.242, CCGACGAC -0.024, AAGGTGAT 0.0818, CGTGCCAG -0.128, AGGCAGCA -0.0464, CTCCATTA -0.0994, CCCTACTA -0.0232, CAGCAAAC 0.0702, CGGCTCGC -0.209, CATTGAAG 0.0378, TTAGCGAA 0.00184, ATCATTTG 0.103, GGGTAATA 0.112, TGGGTACA 0.175, TAGCGTGA 0.0444, ACTTTTAT -0.0194, CGATACGA 0.0557, AGCCACAG -0.178, TAAACGGA -0.01, CGATGCTC -0.13, ATGCTGAC 0.119, ACAAAAAG 0.0414, CCCCTACC -0.165, CAATTCCA -0.0137, ACTTTGTA 0.199, CGGCCTAC -0.0509, ATCTACAC 0.227, CCCGATAG -0.0763, CTTACTGA 0.0357, CGTTATGC -0.0174, AGTACCGC 0.0483, ATGGTCGG -0.017, ATTGTCTG 0.142, GTGCACAA 0.0769, GGTTTAAA 0.118, ACGTCGAA -0.0527, AAGTCCGT -0.0401, CAGAAAGC -0.0118, CAATATAG 0.149, CTGCACTA -0.0752, AGGCATAA -0.0593, GAAAGTGA 0.0715, AACCAGAA 0.0845, AGATCTTG 0.0852, AACTCTGA 0.0245, ACTAGGAC 0.104, AAATTACT 0.124, CTGAATTA 0.0828, CTGCTAGC -0.102, CCGACCAC -0.00916, TCACAGCA 0.0454, AAAGTAAT 0.145, AGAAGTAC 0.0883, GAGATCAC 0.0775, TGCGCAAA -0.112, GAATTAGC 0.0316, GCGGTACC -0.14, GTCGTGAA 0.0715, CAAGCACA 0.0876, AATAATTG 0.0801, CAAGGTTA 0.0455, CAGACCAA -0.0774, ACCTCCGC -0.179, CCGTACGG -0.112, ACAGTGGG -0.0749, AAAGTATA 0.136, CAACAGGG 0.0597, AACGGCGG -0.15, AGCGACCG -0.0911, GTGCCTAA -0.0543, AATGATAT 0.129, AGGGACAT 0.249, GACGGCTA -0.167, ACAGAGTG 0.109, AGAATAAA 0.133, ATGCGTCG 0.0334, TAAGAATA 0.0684, GCAAAATA 0.0822, CATGCCCG -0.0275, CGCAATGA 0.0631, GGTCGACC -0.123, CTTCTTCA -0.0456, GCAATAGC -0.0338, CATCATAA 0.177, CTAATGAC 0.0539, CCAGAAAA -0.00907, CCGTGGTA 0.134, AACGGCCC -0.282, ACGGTATC 0.00523, ATCGTGAA -0.00203, CAGTAAAA 0.0217, CAACAACG 0.227, CCTTTAGA -0.0722, CCGATAGA -0.0623, CAGTATCG 0.0297, ACAAGCCA 0.213, ACCTATTA 0.129, ATAAACTC 0.0627, CTGCTGGA -0.111, CCATGACA 0.137, CTCGTGCC -0.165, AGGCAATG -0.0488, CCCTGGCG -0.212, CGGCAAGC -0.13, CCGCACAG -0.187, ATTCATAA 0.133

PBM E-score, ≥ 0.0398:
TCACTGCA

PBM E-score, active:
GTTACATA 0.365, CATGACAC 0.363, GATATGTA 0.321, ACAAGCAT 0.377, AACACACA ≥ 0.313, CTTGTTCA 0.33

PBM E-score, ≥ 0.161:
ATCATCAC

PBM E-score, ≥ -0.0618:
TCGGGAGA

PBM E-score, ≥ 0.138:
AAGATCAT

PBM E-score, ≥ 0.14:
GAAGTAGA

PBM E-score, ≥ -0.0955:
AGCCGAGA

PBM E-score, ≥ -0.00045:
AGCGCAAT

From the supplement of paper PMC3724861
